PubChem BioAssay AID624255 (Broad Institute, 2012)
Out of some 77,000 compounds screened, about 4,600 (6%) were called active. This list was built around the results that the source calls inconclusive (neither active nor inactive); the mix of calls is not that of the screen.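 Rule for the calls: active = mean inhibition above about 93%, with at least 55% of replicates each passing it (limit read from the data, passing the limit was not always enough); inconclusive = only one of those two conditions holds; inactive = neither condition holds.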

Assay: T. cruzi intracellular proliferation inhibitors, primary screen, cell-based, beta-gal Tulahuen parasites, NIH3T3 host, luminescence (AID 624255)
Settings: T. cruzi beta-gal in NIH3T3, GalScreen luminescence, 90 h; at 8.34 µM; stronger effect = higher value
In the case of `N#C[C@@H]1[C@H](c2ccc(C#CCC3CCCC3)cc2)[C@H](CO)N1C(=O)CN1CCOCC1`, the inhibition is reported as inconclusive: 96.6%. In the case of `CCCC#Cc1ccc([C@@H]2[C@@H](CO)N(C(=O)CN3CCOCC3)[C@H]2C#N)cc1`, the inhibition is reported as inconclusive: 95.9%. For `C[C@@H]1CCCCO[C@H](CN(C)C(=O)Nc2ccc(F)cc2)[C@H](C)CN([C@H](C)CO)C(=O)c2cc(NC(=O)c3ccccc3)ccc2O1`, the inhibition was inconclusive: 97.6%. In the case of `C[C@@H]1CN([C@@H](C)CO)S(=O)(=O)c2ccc(C3=CCCC3)cc2O[C@H]1CN(C)C(=O)C1CCCCC1`, the inhibition is reported as inconclusive: 98.3%. With `C[C@@H]1CCCCO[C@H](CN(C)C(=O)Nc2ccc(C(F)(F)F)cc2)[C@@H](C)CN([C@@H](C)CO)C(=O)c2cc(NC(=O)Cc3ccccc3)ccc2O1` the inhibition was inconclusive: 125%. For `N#Cc1cccc(-c2ccc([C@H]3[C@H](CO)N4CCCCN(C(=O)Nc5cccc(F)c5)C[C@@H]34)cc2)c1`, the inhibition was active: 105%. With `C[C@@H]1CCCCO[C@H](CN(C)Cc2ccc(Cl)c(Cl)c2)[C@@H](C)CN([C@H](C)CO)C(=O)c2cc(NC(=O)Nc3cccc4ccccc34)ccc2O1` the inhibition was inconclusive: 114%. With `Cc1ccc(-c2ccc3c(c2)O[C@@H](CN(C)Cc2ccc(F)cc2)[C@H](C)CN([C@@H](C)CO)S3(=O)=O)cc1` the inhibition was inconclusive: 97.2%. In the case of `CN1[C@H](C(=O)NC2CCCCC2)[C@@H](CO)[C@@H]2Cn3c(ccc(-c4cccc(F)c4)c3=O)[C@@H]21`, the inhibition is reported as inconclusive: 97.5%. With `C[C@@H]1CN([C@H](C)CO)C(=O)Cc2cc(NC(=O)c3ccncc3)ccc2O[C@H]1CN(C)Cc1ccc(-c2ccccc2)cc1` the inhibition was inconclusive: 96.6%. For `COc1ccccc1-c1cn(CC[C@@H]2CC[C@@H](NC(=O)C3CCCCC3)[C@H](CO)O2)nn1`, the inhibition was inactive: -4.66%. For `COc1ccc(S(=O)(=O)Nc2ccc3c(c2)C(=O)N([C@@H](C)CO)C[C@H](C)[C@@H](CN(C)C(=O)c2ccncc2)OCCCC[C@H](C)O3)cc1`, the inhibition was inactive: 7.19%. In the case of `CC(C)C#Cc1ccc([C@@H]2[C@@H](C#N)N(C(=O)C3CCC3)[C@H]2CO)cc1`, the inhibition is reported as inconclusive: 97.5%. In the case of `C[C@H]1CCCCO[C@H](CN(C)C(=O)Nc2ccccc2)[C@@H](C)CN([C@@H](C)CO)C(=O)c2cc(NC(=O)Nc3ccccc3)ccc2O1`, the inhibition is reported as active: 98.4%. With `COc1ccc(S(=O)(=O)Nc2ccc3c(c2)C(=O)N([C@H](C)CO)C[C@H](C)[C@@H](CN(C)S(=O)(=O)c2ccc(OC)cc2)OCCCC[C@H](C)O3)cc1` the inhibition was inconclusive: 95.5%. In the case of `N#C[C@H]1[C@@H](c2ccc(/C=C/c3ccccc3)cc2)[C@@H](CO)N1C(=O)C1CCCC1`, the inhibition is reported as inconclusive: 97.5%. In the case of `C[C@@H]1CN([C@@H](C)CO)C(=O)c2cc(NC(=O)Cc3cn(C)c4ccccc34)ccc2O[C@H]1CN(C)Cc1ccc(Cl)c(Cl)c1`, the inhibition is reported as inconclusive: 88.9%. For `CCCC#Cc1ccc([C@H]2[C@@H](C#N)N(C(=O)C3CC3)[C@@H]2CO)cc1`, the inhibition was inconclusive: 96.1%. In the case of `CCC(=O)N1CCCCN2[C@H](CO)[C@@H](c3ccc(C#Cc4ccccc4F)cc3)[C@@H]2C1`, the inhibition is reported as inconclusive: 95.3%. For `C[C@H]1CN([C@@H](C)CO)S(=O)(=O)c2ccc(C#Cc3ccc(F)cc3)cc2O[C@H]1CN(C)C(=O)c1ccccn1`, the inhibition was inconclusive: 99%. For `COCC#Cc1ccc2c(c1)O[C@H](CN(C)S(=O)(=O)c1cccc(F)c1)[C@@H](C)CN([C@H](C)CO)S2(=O)=O`, the inhibition was inconclusive: 96.5%. For `CCCC#Cc1ccc([C@@H]2[C@H]3CN(S(=O)(=O)c4ccccc4C)CCCCN3[C@H]2CO)cc1`, the inhibition was active: 111%. In the case of `O=C(Nc1ccc(F)cc1)N1CCCCN2[C@H](CO)[C@@H](c3ccc(C#Cc4ccccn4)cc3)[C@H]2C1`, the inhibition is reported as inactive: 93%. In the case of `C[C@H]1CN([C@@H](C)CO)C(=O)c2cc(-c3cccnc3)cnc2O[C@@H]1CN(C)Cc1ccc(Oc2ccccc2)cc1`, the inhibition is reported as inconclusive: 100%. In the case of `CCCNC(=O)N(C)C[C@H]1Oc2cc(C#CCN(C)C)ccc2S(=O)(=O)N([C@@H](C)CO)C[C@@H]1C`, the inhibition is reported as inconclusive: 97.3%. For `O=S(=O)(c1ccccc1F)N1CCCCN2[C@@H](CO)[C@@H](c3ccc(-c4ccncc4)cc3)[C@@H]2C1`, the inhibition was inconclusive: 97%. In the case of `CN(C)C(=O)c1cccc(-c2ccc3c(c2)[C@@H]2[C@@H](CCN2S(=O)(=O)c2cn(C)cn2)[C@H](CO)N3)c1`, the inhibition is reported as inconclusive: 95.6%. In the case of `COc1ccc(CN(C)C[C@H]2OCCCC[C@@H](C)Oc3ccc(NC(=O)Nc4ccc(F)cc4)cc3C(=O)N([C@@H](C)CO)C[C@H]2C)cc1`, the inhibition is reported as inactive: 70.4%. With `Cc1noc(C)c1S(=O)(=O)Nc1ccc2c(c1)C(=O)N([C@H](C)CO)C[C@H](C)[C@H](CN(C)C(=O)CCCN(C)C)OCCCC[C@H](C)O2` the inhibition was inactive: -30.2%. For `CN(C)C(=O)c1ccc(-c2ccc3c(c2)[C@@H]2[C@@H](CCN2S(=O)(=O)c2cn(C)cn2)[C@@H](CO)N3)cc1`, the inhibition was inactive: 76%. With `CCCNC(=O)N1CC[C@@H]2[C@@H](CO)N(C)c3ccc(-c4ccc(F)cc4)cc3[C@@H]21` the inhibition was inactive: 64.3%. In the case of `C[C@@H]1CCCCO[C@H](CN(C)Cc2ccc(C(F)(F)F)cc2)[C@H](C)CN([C@H](C)CO)C(=O)c2cc(NC(=O)Nc3cccc4ccccc34)ccc2O1`, the inhibition is reported as inconclusive: 123%. With `C[C@H]1CN([C@@H](C)CO)S(=O)(=O)c2ccc(-c3ccncc3)cc2O[C@@H]1CN(C)Cc1ccc(Oc2ccccc2)cc1` the inhibition was inconclusive: 124%. For `O=C(C[C@H]1C=C[C@H](NC(=O)c2ccc(F)cc2)[C@@H](CO)O1)NCc1ccncn1`, the inhibition was inactive: 17.9%. For `C[C@@H]1CN([C@@H](C)CO)C(=O)c2cc(NC(=O)NC3CCCCC3)ccc2O[C@@H]1CN(C)Cc1ccc(Cl)c(Cl)c1`, the inhibition was inconclusive: 101%. For `CN(C)C(=O)C[C@@H]1CC[C@H]2[C@@H](COC[C@H](O)CN2CC2CCCCC2)O1`, the inhibition was inactive: -11.7%. For `COC(=O)C[C@@H]1CC[C@@H]2[C@@H](COc3ccc(NC(=O)Nc4ccc(C#N)cc4)cc3C(=O)N2C)O1`, the inhibition was inactive: 74%.
